# The supplement of paper PMC12217912
# The other results are listed elsewhere or left out. Sequences were assembled here from the parent chain. Values near 0.05 are background.
# B1: TEV protease; numbered along this chain (parent)
# chain: MGESLFKGPRDYNPISSSICHLTNESDGHTTSLYGIGFGPFIITNKHLFRRNNGTLVVQSLHGVFKVKDTTTLQQHLVDGRDMIIIRMPKDFPPFPQKLKFREPQREERICLVTTNFQTKSMSSMVSDTSCTFPSGDGIFWKHWIQTKDGQCGSPLVSTRDGFIVGIHSASNFTNTNNYFTSVPKNFMELLTNQEAQQWVSGWRLNADSVLWGGHKVFMVKPEEPFQPVKEATQL
# Variants of: B1
# Assay: raw area under fraction-flipped curve 0-4 h after induction (AUC4h, not background-subtracted), DNA-recorder readout of cleavage of the substrate (dimensionless); higher = more cleavage of the substrate by the protease variant
# Settings: temperature: 34 °C; time window: 0-4 h after rhamnose induction
# Procedure: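 In vivo DNA recorder in E. coli TOP10(DE3) ΔrhaA at 34 °C. Each TEVp single-site mutant (parent TEVp 0) is paired with a single-site variant of the 7-mer TEVs (canonical ENLYFQ|S). The substrate sits between flexible linkers in a Bxb1-sfGFP-TEVs-SsrA fusion, so cleavage stabilises Bxb1 and speeds flipping of a recombination array, read by NGS. The value is the raw area under the fraction-flipped curve over 0-4 h after rhamnose induction (AUC4h), with ≥20 reads per time point. It is not background-subtracted; inactive controls average about 0.047.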
# 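Note: Bxb1 expression induced with 0.2% (w/v) L-rhamnose at OD600 near 0.5, cultures sampled hourly, flipped fraction per protease–substrate barcode pair counted by paired-end Illumina sequencing.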
Variant,area with substrate EALYFQS,area with substrate EDLYFQS,area with substrate EFLYFQS,area with substrate EGLYFQS,area with substrate EHLYFQS,area with substrate EKLYFQS,area with substrate EPLYFQS,area with substrate ETLYFQS,area with substrate EVLYFQS,area with substrate EILYFQS,area with substrate ELLYFQS,area with substrate EMLYFQS,area with substrate EQLYFQS,area with substrate ERLYFQS,area with substrate ESLYFQS,area with substrate EWLYFQS,area with substrate EYLYFQS,area with substrate ECLYFQS,area with substrate EELYFQS
I145V,0.143,0.152,0.146,0.0832,0.121,0.132,0.115,0.171,0.124,,,,,,,,,,
H143G,0.119,0.136,0.101,,,,0.113,0.0805,,0.103,0.0719,0.0869,0.104,0.0748,0.131,0.081,0.0806,,
Q146D,0.106,,0.094,,,,,,,0.0873,0.109,,0.0899,0.101,0.103,,0.166,0.129,0.088
Q146P,0.113,,,0.0828,0.123,,0.126,,0.108,0.087,0.118,0.112,0.117,0.0814,0.0891,0.12,,0.104,0.105
Q146V,0.113,,,0.101,,,,0.12,,0.08,0.0938,0.125,0.125,0.107,0.107,,0.102,0.103,0.0946
F140V,0.0696,0.0803,,,0.0588,0.0624,0.0784,0.0601,0.0646,0.0428,0.0549,0.0638,0.0703,0.0624,0.0636,0.0776,0.0517,0.0641,
F140W,0.143,,,,,0.0928,,,,,,0.112,0.115,,0.107,,,0.103,
F140L,0.083,,0.0818,,0.104,0.0789,0.0779,,0.0745,0.0719,0.0697,,0.0906,0.0637,0.0785,0.0863,,0.082,0.0818
G136D,0.108,,0.0919,,0.126,0.0877,0.0921,,0.087,0.0969,0.0812,0.131,0.127,,0.0887,,0.0814,0.0956,0.111
G136C,0.16,,,0.101,0.0995,0.109,0.107,0.115,0.0952,0.113,,,0.148,0.09,0.109,,0.106,0.108,0.127
K148C,0.111,,0.14,0.124,,0.0927,0.133,0.0913,0.0954,0.0895,0.086,0.0993,0.107,0.0963,0.106,0.092,0.0938,0.0879,0.102
D137V,0.117,,,0.1,,0.0965,0.0941,0.126,0.0898,,,0.092,,,0.118,,,0.1,0.116
D137F,0.0422,,,,,,,0.0744,0.0669,0.066,0.0877,0.102,0.13,0.0539,0.108,,,0.0946,
I139V,0.207,,,,0.133,0.107,,0.136,0.0949,0.104,0.0912,0.144,0.157,0.12,0.103,0.0922,0.109,0.133,0.165
